Data taken from PubChem BioAssay AID485294 (National Center for Advancing Translational Sciences (NCATS), 2010).
Out of some 370,000 compounds screened, about 150 (0.041%) were called active. Inconclusive results, whose numbers are uncertain, are shown with a selection of clear calls. Calls come from the whole dose curve; as a rule, active = well fitted inhibition curve with a large enough effect; inconclusive = small, poorly fitted or top-dose-only effect; inactive = flat fitted curve, though single readings scatter. Potencies of inconclusive entries are left out as doubtful fits.

Target: Beta-lactamase (Escherichia coli (strain K12)) (UniProt P00811)
Assay: qHTS Inhibitors of AmpC Beta-Lactamase (assay with detergent); note: nearly all actives have a fitted effect of over 25% in size;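 for activity change, negative = inhibition: 0% = no-compound wells and -100% = no-enzyme wells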
Conditions: AmpC hydrolysis of nitrocefin, absorbance 480 nm, 0.01% Triton; activity change, negative = inhibition: at 114 µM (top of the series)
How it was run: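 20 mM phosphate pH 7.0 + 0.01% (detergent screen) or 0.0001% Triton X-100; 5.3 nM AmpC reagent; cpd preinc 15 min RT; nitrocefin (800 uM stock) to start; A480 q20 s × 4 min; Activity was normalised to no-enzyme and no-compound control wells.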
Potency is the fitted concentration of half-maximal effect; tags give direction and shape of the fitted curve.

Sequence of UniProt P00811 (P00811 whole entry, looked up): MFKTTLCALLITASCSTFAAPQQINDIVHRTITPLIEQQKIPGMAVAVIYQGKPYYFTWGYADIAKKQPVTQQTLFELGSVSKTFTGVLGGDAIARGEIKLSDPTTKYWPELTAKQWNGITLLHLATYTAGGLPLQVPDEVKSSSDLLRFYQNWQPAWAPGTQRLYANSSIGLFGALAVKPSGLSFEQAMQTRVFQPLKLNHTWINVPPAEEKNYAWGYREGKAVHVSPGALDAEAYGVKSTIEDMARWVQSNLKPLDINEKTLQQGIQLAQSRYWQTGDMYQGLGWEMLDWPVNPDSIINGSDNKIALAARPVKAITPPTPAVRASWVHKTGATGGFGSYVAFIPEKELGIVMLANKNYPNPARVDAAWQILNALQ

SMILES	Potency	activity change, negative = inhibition
CCn1c(COc2ccc(C)cc2)nnc1SCC(=O)Nc1cc(OC)ccc1OC	inconclusive [inhibitor, full curve, poor fit]	
O=C(O)c1ccc(CNCc2ccc(F)cc2)cc1	inconclusive [inhibitor, full curve, poor fit]	
COc1ccc(NC2CCCN(C(=O)CCc3cn[nH]c3)C2)cc1 (stereo unspecified)	inconclusive [inhibitor, full curve, poor fit]	
O=C(CSc1nc2ccc(Nc3nc(N4CCOCC4)nc(N4CCOCC4)n3)cc2s1)NCc1ccco1	inconclusive [inhibitor, single point]	
CCCCC(=O)Nc1ccc(C(=O)NCCN2CCOCC2)cc1	inconclusive [inhibitor, full curve, poor fit]	
O=C(CSc1nnc(SCc2ccc(Cl)cc2)s1)N/N=C/c1c[nH]c2ccccc12	inconclusive [inhibitor, full curve, poor fit]	
Nc1ncn(C2O[C@H](CO)[C@@H](O)[C@H]2O)c(=O)n1 (stereo partly specified)	inconclusive [inhibitor, full curve, poor fit]	
CC(C)(C)C1=C(C#N)C(c2ccncc2)C(C#N)=C(N)O1 (stereo unspecified)	inconclusive [inhibitor, full curve]	
CCCCN1C(=N)C(CC)(CC)C(=O)NC1=O	inconclusive [inhibitor, partial curve]	
CCCCC(=O)NC(c1ccccc1)c1ccc2cccnc2c1O (stereo unspecified)		inactive: -19.7%
COc1cc(NC(=O)CN2c3cccc4cccc(c34)S2(=O)=O)cc(OC)c1OC		inactive: 1.07%
Cc1nc2cc(-c3ccc(F)cc3)nn2c(N2CCOCC2)c1C	inconclusive [inhibitor, full curve, poor fit]	
COc1ccc2cnn(-c3ccc(OC(F)(F)Cl)cc3)c(=O)c2c1OC		inactive: 5.99%
O=C(NCC(=O)N1CCCC(C(F)(F)F)C1)c1ccc(Br)o1 (stereo unspecified)	inconclusive [inhibitor, full curve, poor fit]	
O=C1CCC(C(=O)N2CCOCC2)CN1Cc1ccc(Cl)cc1 (stereo unspecified)	inconclusive [inhibitor, full curve]	
CCCCS(=O)(=O)C1CCS(=O)(=O)C1 (stereo unspecified)	inconclusive [inhibitor, single point]	
CCOC(=O)C1=C(O)c2ccccc2C(=O)/C1=C\c1ccc(C)cc1		inactive: -4.8%
COc1ccc(CC(=O)OC2CCCN(C)C2)cc1 (stereo unspecified)	inconclusive [inhibitor, single point]	
CCCCNC(=O)c1ccc(NS(=O)(=O)c2ccccc2)cc1	inconclusive [inhibitor, full curve, poor fit]	
CCOC(=O)c1cnc2c(C)c(Cl)ccc2c1N1CCOCC1	inconclusive [inhibitor, full curve, poor fit]	
CCCCN1CCc2[nH]c(=S)[nH]c(=O)c2C1	inconclusive [inhibitor, full curve, poor fit]	

SMILES	Potency	activity change, negative = inhibition
COc1ccc(-c2[nH]n(-c3ccc([N+](=O)[O-])cc3)c(=O)c2C=NCc2ccc(F)cc2)cc1	inconclusive [inhibitor, partial curve, poor fit]	
COc1ccc(C(C#N)N2N=C(C)CC2c2ccccc2)cc1OC (stereo unspecified)	inconclusive [inhibitor, partial curve, poor fit]	
N#Cc1c(NCCO)nc(NCc2ccccc2)c2c1CCN(Cc1ccccc1)C2	inconclusive [inhibitor, single point]	
Cc1cccc([C@@H]2[C@@H]3C(=O)N(C)C(=O)[C@@H]3[C@@H]3C(=O)Nc4ccccc4C(=O)N23)c1	inconclusive [inhibitor, partial curve, poor fit]	
N#Cc1cc2c(nc1SC1CC(=O)N(c3ccccc3)C1=O)CCC2 (stereo unspecified)	inconclusive [inhibitor, full curve]	
O=C(N/N=C/c1c(Cl)cccc1Cl)c1ccc(-n2cnnn2)cc1	inconclusive [inhibitor, full curve, poor fit]	
COc1cccc(C(=O)NC(C)c2ccc(Br)cc2)c1 (stereo unspecified)	inconclusive [inhibitor, partial curve]	
COc1ccc(C(=O)Nc2cc3c4c(c2)CC(=O)N4CCC3)cc1		inactive: -5.65%
C[C@H]1CCC/C=C/C2C[C@H](O)CC2[C@H](O)/C=C/C(=O)O1 (stereo partly specified)		inactive: -6.73%
CC(C)n1nnnc1C(c1ccc(F)cc1)N1CCN(C2CCCC2)CC1 (stereo unspecified)	inconclusive [inhibitor, partial curve, poor fit]	
CC(C)(Oc1ccc(Cl)cc1)C(=O)OCC(=O)N1CCN(c2ccccc2)CC1	inconclusive [inhibitor, partial curve, poor fit]	
CCCOc1ccc(C(=O)Nc2ccc(CN3CCOCC3)cc2)cc1		inactive: -9.56%
CCCCCCSc1ccc(-c2nc3ccc(C)cn3c2NCc2ccccc2)cc1OC	inconclusive [inhibitor, partial curve, poor fit]	
COc1cccc(NC(=O)c2ccn(C)n2)c1	inconclusive [inhibitor, full curve, poor fit]	
Nc1nc(-c2ccccc2)c(C(=O)Nc2ccccc2)s1	inconclusive [inhibitor, partial curve]	
CCN(C1CCCCC1)S(=O)(=O)c1c(C)n(C)c(=O)n(C)c1=O	inconclusive [inhibitor, full curve]	
Cc1nc2ccc(C(=O)OCC(=O)N(C)c3ccccc3)cc2nc1C	inconclusive [inhibitor, partial curve, poor fit]	
O=C(C1CCC(=O)N(C2CCCC2)C1)N1CCC(Oc2cccc(F)c2)CC1 (stereo unspecified)	inconclusive [inhibitor, full curve, poor fit]	
OCC1(Cc2ccccc2F)CCCN(CCc2ccccc2)C1 (stereo unspecified)	inconclusive [inhibitor, full curve, poor fit]	
Cn1c(SCc2ccccc2)nnc1-c1cnccn1	inconclusive [inhibitor, full curve, poor fit]	
